According to US20160031967A1 (Affibody, published 2016):
Positions count from the first letter of the chain named.

B1: Z13761-ABD fusion (designed binder)
chain: AQHDEALEVDAKYAKELEEAAHEIRWLPNLTFDQRVAFIHKLRDDPSQSSELLSEAKKLNDSQAPKVDYVLAEAKVLANRELDKYGVSDYYKNLINNAKTVEGVKALIDEILAALPYVPG
notes: domain: GA3; periplasmic Z-ABD fusion
B2: Z13638-ABD fusion (designed binder)
chain: B1 chain with L17F, E18N, E19F
notes: as for B1
B3: Z13597-ABD fusion (designed binder)
chain: B1 chain with E18Q, E19S, R43K
notes: as for B1
B4: Z13628-ABD fusion (designed binder)
chain: B1 chain with E18N, E19T, R43K
notes: as for B1
B5: Z13579-ABD fusion (designed binder)
chain: B1 chain with L17I, E18S, E19A, A21S
notes: as for B1
B6: Z13625-ABD fusion (designed binder)
chain: B1 chain with L17V, E18S, E19D
notes: as for B1
B7: Z13611-ABD fusion (designed binder)
chain: B1 chain with L17W, E18K, E19A
notes: as for B1
B8: Z13667-ABD fusion (designed binder)
chain: B1 chain with L17Y, E18R, E19A
notes: as for B1
B9: Z13587-ABD fusion (designed binder)
chain: B1 chain with L17H, E18V, E19D
notes: as for B1
B10: Z13645-ABD fusion (designed binder)
chain: B1 chain with L17V, E18D, E19T
notes: as for B1
B11: Z13669-ABD fusion (designed binder)
chain: B1 chain with E18A, E19S, A21G
notes: as for B1
B12: Z13691-ABD fusion (designed binder)
chain: B1 chain with L17W, E18D, E19A
notes: as for B1
B13: Z13719-ABD fusion (designed binder)
chain: B1 chain with L17A, E18K, E19S
notes: as for B1
B14: Z13656-ABD fusion (designed binder)
chain: B1 chain with L17Y, E18V, E19K, A21G, H40R
notes: as for B1
B15: Z13616-ABD fusion (designed binder)
chain: B1 chain with L17W, E18Q, E19Q
notes: as for B1
B16: Z13692-ABD fusion (designed binder)
chain: B1 chain with L17E, E18M, E19Q, A21G
notes: as for B1
B17: Z13624-ABD fusion (designed binder)
chain: B1 chain with L17S, E18K, E19Q
notes: as for B1
B18: Z13637-ABD fusion (designed binder)
chain: B1 chain with L17V, E19V, A21K, R43D
notes: as for B1
B19: Z13613-ABD fusion (designed binder)
chain: B1 chain with E19A, A21R, R43N
notes: as for B1
B20: Z13651-ABD fusion (designed binder)
chain: B1 chain with L17V, E18S, E19A, A21S
notes: as for B1
B21: Z13706-ABD fusion (designed binder)
chain: B1 chain with L17E, E18D, E19S, R43K
notes: as for B1
B22: Z13626-ABD fusion (designed binder)
chain: B1 chain with L17A, E18D, E19S, A21S
notes: as for B1
B23: Z13664-ABD fusion (designed binder)
chain: B1 chain with E18Q
notes: as for B1
B24: Z13640-ABD fusion (designed binder)
chain: B1 chain with L17W, E18M, E19D
notes: as for B1
B25: Z13644-ABD fusion (designed binder)
chain: B1 chain with E18N, E19S
notes: as for B1
B26: Z13652-ABD fusion (designed binder)
chain: B1 chain with L17D, E18Q, E19D
notes: as for B1
B27: Z13639-ABD fusion (designed binder)
chain: B1 chain with L17H, E18D, E19S
notes: as for B1
B28: Z13675-ABD fusion (designed binder)
chain: B1 chain with L17N, E18Q, E19A
notes: as for B1
B29: Z13617-ABD fusion (designed binder)
chain: B1 chain with L17A, E18D, E19Q, A21G, H40R
notes: as for B1
B30: Z13577-ABD fusion (designed binder)
chain: B1 chain with L17W, E18H, E19Q
notes: as for B1
B31: Z13695-ABD fusion (designed binder)
chain: B1 chain with L17I, E18D, E19A, A21K, R43D
notes: as for B1
B32: Z13594-ABD fusion (designed binder)
chain: B1 chain with L17I, E18D, A21K, R43D
notes: as for B1
B33: Z13592-ABD fusion (designed binder)
chain: B1 chain with L17V, E18D, E19I
notes: as for B1
B34: Z13697-ABD fusion (designed binder)
chain: B1 chain with L17A, E19R, A21G, H40R
notes: as for B1
B35: Z13585-ABD fusion (designed binder)
chain: B1 chain with L17Y, E18L, E19D
notes: as for B1
B36: Z13674-ABD fusion (designed binder)
chain: B1 chain with L17I, E19D, A21G
notes: as for B1
B37: Z13573-ABD fusion (designed binder)
chain: B1 chain with L17S, E18K, E19D
notes: as for B1
B38: Z13654-ABD fusion (designed binder)
chain: B1 chain with E19A, A21K, R43D
notes: as for B1
B39: Z13609-ABD fusion (designed binder)
chain: B1 chain with L17W, E18K, E19V
notes: as for B1
B40: Z13634-ABD fusion (designed binder)
chain: B1 chain with L17W, E18Y, E19N
notes: as for B1
B41: Z13605-ABD fusion (designed binder)
chain: B1 chain with L17I, E19S, A21K, R43N
notes: as for B1
B42: Z13708-ABD fusion (designed binder)
chain: B1 chain with L17Q, E18K, E19A, A21G
notes: as for B1
B43: Z13694-ABD fusion (designed binder)
chain: B1 chain with E18S, E19D, R43N
notes: as for B1
B44: Z13655-ABD fusion (designed binder)
chain: B1 chain with L17S, E18K, E19R
notes: as for B1
B45: Z13600-ABD fusion (designed binder)
chain: B1 chain with L17A, E18H
notes: as for B1
B46: Z13598-ABD fusion (designed binder)
chain: B1 chain with E19K
notes: as for B1
B47: Z13574-ABD fusion (designed binder)
chain: B1 chain with L17K, E18K
notes: as for B1
B48: Z13641-ABD fusion (designed binder)
chain: B1 chain with L17F, E18S, E19A, A21G
notes: as for B1
B49: Z13621-ABD fusion (designed binder)
chain: B1 chain with L17A, E18D, E19A, A21G
notes: as for B1
B50: Z13627-ABD fusion (designed binder)
chain: B1 chain with E18M
notes: as for B1
B51: Z13672-ABD fusion (designed binder)
chain: B1 chain with L17V, E18Q, E19S, A21S
notes: as for B1

Molecular target: T1, human FcRn (Biorbyt, cat. no. orb84388) (human, UniProt P55899 24-297; P61769 21-119, limits assumed)
T1 construct: Bought protein; Biotinylated in AlphaLISA and ELISA; also called biotinylated human FcRn
Experiment: ELISA titration of biotinylated human FcRn, pH 7.4
Protocol: (§1) ELISA KD analysis of FcRn binding Z variants: A selection of FcRn binders was subjected to an analysis of the response against a dilution series of biotinylated human FcRn using ELISA at both pH 6.0 and pH 7.4 as described above. […] As a background control, all Z variants were also assayed with no target protein added. […] Data were analyzed using GraphPad Prism 5 and non-linear regression and KD values (the half maximal effective concentration) were calculated.
(§2) Periplasm samples were incubated with a serial dilution of biotinylated human FcRn.

Kd | Binder
3.7 nM | B1
2.9 nM | B2
6 nM | B3
5.5 nM | B4
5.3 nM | B5
2.8 nM | B6
2.5 nM | B7
2.3 nM | B8
6.9 nM | B9
2.5 nM | B10
1.7 nM | B11
2.7 nM | B12
7.3 nM | B13
3.7 nM | B14
1.7 nM | B15
3.7 nM | B16
3.4 nM | B17
4.8 nM | B18
4.3 nM | B19
2.7 nM | B20
6.4 nM | B21
2.7 nM | B22
4.2 nM | B23
1.9 nM | B24
2.8 nM | B25
2.9 nM | B26

Kd | Binder
3 nM | B27
2.2 nM | B28
1.9 nM | B29
1.4 nM | B30
5.3 nM | B31
6.3 nM | B32
1.8 nM | B33
2.4 nM | B34
1.7 nM | B35
1.3 nM | B36
3.8 nM | B37
2.9 nM | B38
2.7 nM | B39
2.3 nM | B40
3.8 nM | B41
4.4 nM | B42
3.6 nM | B43
2.4 nM | B44
4 nM | B45
1.7 nM | B46
5 nM | B47
1.8 nM | B48
1.4 nM | B49
2.9 nM | B50
5.6 nM | B51

Molecular target: T1, human FcRn (Biorbyt, cat. no. orb84388)
Experiment: ELISA titration of biotinylated human FcRn, pH 6.0
Protocol: as §1, §2

Kd | Binder
1.9 nM | B1
1.2 nM | B2
1.4 nM | B3
1.3 nM | B4
1.2 nM | B5
1.3 nM | B6
1.3 nM | B7
1.2 nM | B8
1.4 nM | B9
1.2 nM | B10
0.92 nM | B11
1.8 nM | B12
2.6 nM | B13
1.1 nM | B14
0.96 nM | B15
1.3 nM | B16
1.3 nM | B17
1.3 nM | B18
1.2 nM | B19
1.2 nM | B20
2 nM | B21
1.2 nM | B22
2.4 nM | B23
1.1 nM | B24
1.3 nM | B25
1.4 nM | B26

Kd | Binder
1.3 nM | B27
0.96 nM | B28
1.2 nM | B29
0.99 nM | B30
1.8 nM | B31
1.3 nM | B32
0.95 nM | B33
1.2 nM | B34
1.2 nM | B35
0.92 nM | B36
1.1 nM | B37
0.95 nM | B38
1.3 nM | B39
1.1 nM | B40
1.3 nM | B41
1.9 nM | B42
0.98 nM | B43
1.1 nM | B44
1.4 nM | B45
1.1 nM | B46
1.2 nM | B47
1.1 nM | B48
0.86 nM | B49
1.2 nM | B50
2.5 nM | B51
